# The supplement of paper PMC8728848
# Some of the results follow.
# B1: PX14375C-bth-509-28-509 (Bacteroides thetaiotaomicron) (protein)
# chain: RSPQGQFTEDDNPNALVNGKIYNVYTMMRSFDITAGTPAIAIHYLRSEDSEKGSIPSDGSDVAEMYDDFLYTPTNGLLGSYWGKNYAIIYQCNDILDAIAEKETAGQTETEDIINKGEASFFRAYCYFNLVRAFGEVPLVTYKINDASEANIPKTTADKIYEQIDTDLKTAEESLPETWSTEYTGRLTWGAARSLHARTYMMRSDWDNMYKASTDVINKGLYNLKTPYNEIFTDDGENSGGSIFELQCTATAALPQSDVIGSQFCEVQGVRGAGQWDLGWGWHMATQLMADAYETGDPRKNATLLYFRKTDDEPITPENTNEPYGESPISPAMGAYFNKKAYTDPALRKEYTNKGFWVNIRLIRYSDVVLMAAEAANEKNIPGEAVDYLEMVRARARGTNTNILPKITTNDQGELREAIRHERRVELGLEPDRFYDLVRWGIASEVLHAAGKVNYQDKNALLPLPQSEIDKSKGVLVQNPDY
# What was measured:
# Experiment in all cases: glycan array binding signal (z-score within array); higher = stronger binding
# Conditions in all cases: glycan notation: IUPAC condensed, linker removed
# [1] = molecular target: Fuc(a1-2)Gal6S(b1-3)GlcNAc6S
# In short: (§1)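 Columns mapping to the same glycan were averaged after glycan names were converted to IUPAC-condensed notation. The data come from 3228 arrays in the Consortium for Functional Glycomics database, limited to those with an available protein sequence. Binding is reported as a within-array Z-score averaged across arrays of one protein sequence and across linkers.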
# [2] = molecular target: Fuc(a1-2)Gal6S(b1-4)Glc
# In short: as §1
# [3] = molecular target: Fuc(a1-2)Gal6S(b1-4)Glc6S
# In short: as §1
# [4] = molecular target: Fuc(a1-2)[Gal(a1-3)]Gal
# In short: as §1
# [5] = molecular target: Fuc(a1-2)[Gal(a1-3)]Gal(b1-3)GalNAc
# In short: as §1
# [6] = molecular target: Fuc(a1-2)[Gal(a1-3)]Gal(b1-3)GalNAc(b1-3)Gal(a1-4)Gal(b1-4)Glc
# In short: as §1
# [7] = molecular target: Fuc(a1-2)[Gal(a1-3)]Gal(b1-3)GlcNAc
# In short: as §1
# [8] = molecular target: Fuc(a1-2)[Gal(a1-3)]Gal(b1-3)GlcNAc(b1-2)Man(a1-3)[Fuc(a1-2)[Gal(a1-3)]Gal(b1-3)GlcNAc(b1-2)Man(a1-6)]Man(b1-4)GlcNAc(b1-4)GlcNAc
# In short: as §1
# [9] = molecular target: Fuc(a1-2)[Gal(a1-3)]Gal(b1-3)GlcNAc(b1-2)Man(a1-3)[Fuc(a1-2)[Gal(a1-3)]Gal(b1-3)GlcNAc(b1-2)Man(a1-6)]Man(b1-4)GlcNAc(b1-4)[Fuc(a1-6)]GlcNAc
# In short: as §1
# [10] = molecular target: Fuc(a1-2)[Gal(a1-3)]Gal(b1-3)GlcNAc(b1-3)GalNAc
# In short: as §1
# [11] = molecular target: Fuc(a1-2)[Gal(a1-3)]Gal(b1-3)GlcNAc(b1-6)GalNAc
# In short: as §1
# [12] = molecular target: Fuc(a1-2)[Gal(a1-3)]Gal(b1-4)Glc
# In short: as §1
# [13] = molecular target: Fuc(a1-2)[Gal(a1-3)]Gal(b1-4)GlcNAc
# In short: as §1
# [14] = molecular target: Fuc(a1-2)[Gal(a1-3)]Gal(b1-4)GlcNAc(b1-2)Man
# In short: as §1
# [15] = molecular target: Fuc(a1-2)[Gal(a1-3)]Gal(b1-4)GlcNAc(b1-2)Man(a1-3)[Fuc(a1-2)[Gal(a1-3)]Gal(b1-4)GlcNAc(b1-2)Man(a1-6)]Man(b1-4)GlcNAc(b1-4)GlcNAc
# In short: as §1
# [16] = molecular target: Fuc(a1-2)[Gal(a1-3)]Gal(b1-4)GlcNAc(b1-2)Man(a1-3)[Fuc(a1-2)[Gal(a1-3)]Gal(b1-4)GlcNAc(b1-2)Man(a1-6)]Man(b1-4)GlcNAc(b1-4)[Fuc(a1-6)]GlcNAc
# In short: as §1
# [17] = molecular target: Fuc(a1-2)[Gal(a1-3)]Gal(b1-4)GlcNAc(b1-3)GalNAc
# In short: as §1
# [18] = molecular target: Fuc(a1-2)[Gal(a1-3)]Gal(b1-4)GlcNAc(b1-3)[Fuc(a1-2)[Gal(a1-3)]Gal(b1-4)GlcNAc(b1-6)]GalNAc
# In short: as §1
# [19] = molecular target: Fuc(a1-2)[Gal(a1-3)]Gal(b1-4)GlcNAc(b1-6)GalNAc
# In short: as §1
# [20] = molecular target: Fuc(a1-2)[Gal(a1-3)]Gal(b1-4)[Fuc(a1-3)]Glc
# In short: as §1
# [21] = molecular target: Fuc(a1-2)[Gal(a1-3)]Gal(b1-4)[Fuc(a1-3)]GlcNAc
# In short: as §1
# [22] = molecular target: Fuc(a1-2)[Gal(a1-3)]Gal(b1-4)[Fuc(a1-3)]GlcNAc(b1-3)GalNAc
# In short: as §1
# [23] = molecular target: Fuc(a1-2)[Gal(a1-4)]Gal(b1-4)GlcNAc
# In short: as §1
# [24] = molecular target: Fuc(a1-2)[GalNAc(a1-3)]Gal
# In short: as §1
# [25] = molecular target: Fuc(a1-2)[GalNAc(a1-3)]Gal(b1-3)GalNAc(a1-3)[Fuc(a1-2)]Gal(b1-4)GlcNAc
# In short: as §1
# [26] = molecular target: Fuc(a1-2)[GalNAc(a1-3)]Gal(b1-3)GalNAc(b1-3)Gal(a1-4)Gal(b1-4)Glc
# In short: as §1
# [27] = molecular target: Fuc(a1-2)[GalNAc(a1-3)]Gal(b1-3)GlcNAc
# In short: as §1
# [28] = molecular target: Fuc(a1-2)[GalNAc(a1-3)]Gal(b1-3)GlcNAc(b1-2)Man(a1-3)[Fuc(a1-2)[GalNAc(a1-3)]Gal(b1-3)GlcNAc(b1-2)Man(a1-6)]Man(b1-4)GlcNAc(b1-4)GlcNAc
# In short: as §1
# [29] = molecular target: Fuc(a1-2)[GalNAc(a1-3)]Gal(b1-3)GlcNAc(b1-2)Man(a1-3)[Fuc(a1-2)[GalNAc(a1-3)]Gal(b1-3)GlcNAc(b1-2)Man(a1-6)]Man(b1-4)GlcNAc(b1-4)[Fuc(a1-6)]GlcNAc
# In short: as §1
# [30] = molecular target: Fuc(a1-2)[GalNAc(a1-3)]Gal(b1-3)GlcNAc(b1-3)GalNAc
# In short: as §1
# [31] = molecular target: Fuc(a1-2)[GalNAc(a1-3)]Gal(b1-3)GlcNAc(b1-6)GalNAc
# In short: as §1
# [32] = molecular target: Fuc(a1-2)[GalNAc(a1-3)]Gal(b1-4)Glc
# In short: as §1
# [33] = molecular target: Fuc(a1-2)[GalNAc(a1-3)]Gal(b1-4)GlcNAc
# In short: as §1
# [34] = molecular target: Fuc(a1-2)[GalNAc(a1-3)]Gal(b1-4)GlcNAc(b1-2)Man
# In short: as §1
# [35] = molecular target: Fuc(a1-2)[GalNAc(a1-3)]Gal(b1-4)GlcNAc(b1-2)Man(a1-3)[Fuc(a1-2)[GalNAc(a1-3)]Gal(b1-4)GlcNAc(b1-2)Man(a1-6)]Man(b1-4)GlcNAc(b1-4)GlcNAc
# In short: as §1
# [36] = molecular target: Fuc(a1-2)[GalNAc(a1-3)]Gal(b1-4)GlcNAc(b1-2)Man(a1-3)[Fuc(a1-2)[GalNAc(a1-3)]Gal(b1-4)GlcNAc(b1-2)Man(a1-6)]Man(b1-4)GlcNAc(b1-4)[Fuc(a1-6)]GlcNAc
# In short: as §1
# [37] = molecular target: Fuc(a1-2)[GalNAc(a1-3)]Gal(b1-4)GlcNAc(b1-3)Gal(b1-4)GlcNAc
# In short: as §1
# [38] = molecular target: Fuc(a1-2)[GalNAc(a1-3)]Gal(b1-4)GlcNAc(b1-3)Gal(b1-4)GlcNAc(b1-3)Gal(b1-4)GlcNAc
# In short: as §1
# [39] = molecular target: Fuc(a1-2)[GalNAc(a1-3)]Gal(b1-4)GlcNAc(b1-3)GalNAc
# In short: as §1
# [40] = molecular target: Fuc(a1-2)[GalNAc(a1-3)]Gal(b1-4)GlcNAc(b1-3)[Fuc(a1-2)[GalNAc(a1-3)]Gal(b1-4)GlcNAc(b1-6)]GalNAc
# In short: as §1
# [41] = molecular target: Fuc(a1-2)[GalNAc(a1-3)]Gal(b1-4)GlcNAc(b1-6)GalNAc
# In short: as §1
# [42] = molecular target: Fuc(a1-2)[GalNAc(a1-3)]Gal(b1-4)[Fuc(a1-3)]GlcNAc
# In short: as §1
# [43] = molecular target: Fuc(a1-2)[GalNAc(a1-3)]Gal(b1-4)[Fuc(a1-3)]GlcNAc(b1-3)GalNAc
# In short: as §1
# [44] = molecular target: Fuc(a1-2)[GalNAc(a1-4)]Gal(b1-4)GlcNAc
# In short: as §1
# [45] = molecular target: Fuc(a1-2)[GalNAc(b1-3)]Gal
# In short: as §1
binder,measurement,setting,value
B1,glycan array binding signal (z-score),[1],0.159
same,glycan array binding signal (z-score),[2],-0.051
same,glycan array binding signal (z-score),[3],-0.272
same,glycan array binding signal (z-score),[4],-0.193
same,glycan array binding signal (z-score),[5],-0.032
same,glycan array binding signal (z-score),[6],-0.177
same,glycan array binding signal (z-score),[7],-0.181
same,glycan array binding signal (z-score),[8],0.287
same,glycan array binding signal (z-score),[9],-0.336
same,glycan array binding signal (z-score),[10],-0.337
same,glycan array binding signal (z-score),[11],-0.156
same,glycan array binding signal (z-score),[12],0.04
same,glycan array binding signal (z-score),[13],-0.248
same,glycan array binding signal (z-score),[14],-0.262
same,glycan array binding signal (z-score),[15],1.12
same,glycan array binding signal (z-score),[16],0.281
same,glycan array binding signal (z-score),[17],-0.367
same,glycan array binding signal (z-score),[18],-0.383
same,glycan array binding signal (z-score),[19],-0.094
same,glycan array binding signal (z-score),[20],-0.317
same,glycan array binding signal (z-score),[21],-0.256
same,glycan array binding signal (z-score),[22],0.431
same,glycan array binding signal (z-score),[23],-0.381
same,glycan array binding signal (z-score),[24],-0.271
same,glycan array binding signal (z-score),[25],-0.112
same,glycan array binding signal (z-score),[26],-0.355
same,glycan array binding signal (z-score),[27],-0.183
same,glycan array binding signal (z-score),[28],0.437
same,glycan array binding signal (z-score),[29],-0.19
same,glycan array binding signal (z-score),[30],-0.068
same,glycan array binding signal (z-score),[31],0.008
same,glycan array binding signal (z-score),[32],-0.445
same,glycan array binding signal (z-score),[33],-0.183
same,glycan array binding signal (z-score),[34],-0.161
same,glycan array binding signal (z-score),[35],0.214
same,glycan array binding signal (z-score),[36],-0.354
same,glycan array binding signal (z-score),[37],-0.343
same,glycan array binding signal (z-score),[38],0.081
same,glycan array binding signal (z-score),[39],-0.174
same,glycan array binding signal (z-score),[40],-0.229
same,glycan array binding signal (z-score),[41],3.04
same,glycan array binding signal (z-score),[42],-0.276
same,glycan array binding signal (z-score),[43],1.72
same,glycan array binding signal (z-score),[44],0.801
same,glycan array binding signal (z-score),[45],-0.378
